PubChem BioAssay AID652104 (National Center for Advancing Translational Sciences (NCATS), 2013)
Screen size: about 410,000 compounds; about 7,200 (1.8%) were called active. Inconclusive means that the source gave no clear call. Such entries were picked first, then a sample of the others. Calls follow the shape of the dose curve; as a rule, active = well fitted activation curve with a large enough effect; inconclusive = small, poorly fitted or top-dose-only effect, or another doubt; inactive = no such curve, though single readings can be large or run the other way. No potency is given beside an inconclusive call; the fits are too rough.

Assay: qHTS of TDP-43 Inhibitors; also: nearly all actives have a fitted effect of over 50% in size; as to growth rescue (activation): % of control where 0% means no effect
Settings: TDP-43 expressing yeast growth rescue, BacTiter-Glo, 24 h; growth rescue (activation): at 46.1 µM (top of the series) unless noted
Summary of the method: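 In this qHTS, compounds that restore growth of yeast expressing TDP-43 appear as activators. Cells (OD600=0.02, galactose medium, raffinose-pregrown) are incubated with compound 24 hr at 30 deg C and growth is quantified by BacTiter-Glo.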
Potency is read from the fitted curve at half-maximal effect; tags tell the direction and shape of the fitted curve.

| SMILES | Potency | growth rescue (activation) |
| --- | --- | --- |
| CCOC(=O)Cn1nc(/C=C/c2ccc(C(C)C)cc2)ccc1=O | active: 20 µM |  |
| COc1ccc(CC2=C(O)c3ccccc3C(=O)C2=O)cc1 | inconclusive [activator, single point] |  |
| Cc1ccc(C(=O)c2oc3ccccc3c2N)cc1 | inconclusive [activator, partial curve] |  |
| COC(=O)N1CCC2CC1c1c(Cl)cccc12 (stereo unspecified) | inconclusive [activator, single point] |  |
| Cc1cccc(C)c1NC(=O)C(c1ccc(C#N)cc1)n1c(=O)c(-c2cc3ccccc3[nH]2)nc2ccccc21 (stereo unspecified) | active: 10 µM |  |
| OC(c1ccccc1)c1ncc(-c2cccc(C(F)(F)F)c2)[nH]1 (stereo unspecified) | inconclusive [activator, full curve, poor fit] |  |
| Cc1ccc(-c2ccc(=O)n(CC(=O)Nc3ccc(C)cc3Cl)n2)cc1 |  | inactive: 0% |
| O=C(COc1ccccc1)N1CCN(c2nnc(-c3ccccc3)c3ccccc23)CC1 | inconclusive [activator, single point] |  |
| CCC(=O)N1CCN(c2nc(CC)nc3sc4c(c23)CCCC4)CC1 | inconclusive [activator, single point] |  |
| COC(=O)c1ccccc1NC(=O)Cc1ccccc1OC | inconclusive [activator, partial curve] |  |
| Cc1ccc(Cl)cc1N1CCN(C(=O)c2ccc(NC(=O)c3nsc4ccccc34)cc2)CC1 |  | inactive: 21.7% |
| Cc1ccc(C)c(C(C)NC(=O)c2ccncc2)c1 (stereo unspecified) | inconclusive [activator, partial curve, poor fit] |  |
| COC(=O)C(Cc1c[nH]c2ccccc12)NC(=O)COc1cccc(C)c1 (stereo unspecified) |  | inactive: 3.17% |
| CC(=O)Nc1ccc(Cl)cc1C(=O)c1ccc[nH]1 | inconclusive [activator, partial curve] |  |
| N/C(=N\OC(=O)c1cccc2ccccc12)c1ccc(Br)cc1 | inconclusive [activator, single point] |  |
| Cc1c(C(=O)NCc2ccccc2)sc2nc3n(c(=O)c12)CCCCC3 | inconclusive [activator, single point] |  |
| O=C(CSc1ccccc1)NCCSCc1ccccc1 | inconclusive [activator, single point] |  |
| Cc1ccc(C)c(N2CCN(C(=O)c3cc4ccccn4n3)CC2)c1 | inconclusive [activator, partial curve] |  |
| CCc1noc(C)c1C(=O)OC(C)C(=O)Nc1ccc(Cl)cn1 (stereo unspecified) | inconclusive [activator, partial curve] |  |
| CCOc1ccc(-n2c(/C=C/c3cccc(F)c3)nc3cc(OC)c(OC)cc3c2=O)cc1 | inconclusive [activator, single point] |  |
| Cc1cc(C)nc(SC2CC(=O)N(c3ccc(C)c(C)c3)C2=O)n1 (stereo unspecified) | inconclusive [activator, partial curve] |  |
| Cc1c(C(=O)N(C)Cc2ccc(F)cc2)sc(=O)n1Cc1ccc(Cl)c(Cl)c1 | active: 22.4 µM |  |

| SMILES | Potency | growth rescue (activation) |
| --- | --- | --- |
| Cc1c(C(=O)NCc2ccccc2Cl)sc2nc3n(c(=O)c12)CCCCC3 | active: 35.5 µM |  |
| COc1cccc(Nc2ccc3cc(S(=O)(=O)N4CCC(C)CC4)ccc3n2)c1 | active: 12.6 µM |  |
| CCCNc1nc(C)cc(-c2cc(-c3ccccc3)on2)n1 | inconclusive [activator, partial curve] |  |
| C[C@H]1CN([C@@H](C)CO)C(=O)CCCn2nncc2CO[C@H]1CN(C)C(=O)Nc1ccc2c(c1)OCO2 | inconclusive [activator, full curve, poor fit] |  |
| O=C(Nc1ccccc1)Nc1cccc(Cl)c1Cl | inconclusive [activator, single point] |  |
| CN(Cc1ccc(F)cc1)C(=O)c1cc(COc2ccc(-n3cncn3)cc2)on1 | inconclusive [activator, partial curve] |  |
| COC(OC)c1ccnc(-c2ccc(OC(=O)c3ccccc3)cc2)n1 | inconclusive [activator, partial curve] |  |
| CCOC(=O)c1cn(-c2ccccc2)nc1-c1ccncc1 |  | inactive: 14.1% |
| CCC1CN(C(=O)N2CCC(C(=O)NCc3ccc(N(C)C)cc3)CC2)c2ccccc2O1 (stereo unspecified) |  | inactive: -20.3% |
| O=C(Nc1nc(-c2ccccn2)cs1)C1COc2ccccc2O1 (stereo unspecified) |  | inconclusive: -53.6% [activator] |
| Cc1cccc(NC(=O)c2ccc(COc3ccc(Cl)cc3Cl)o2)n1 | active: 17.8 µM |  |
| N/C(Cc1ccc(Cl)cc1Cl)=N\OC(=O)Cc1ccc(Cl)cc1 | active: 1.26 µM |  |
| COc1ccccc1N1CCN(C(=O)CSc2ccccc2)CC1 | inconclusive [activator, partial curve] |  |
| CC1CCC(NC(=O)c2ccc3c(c2)OCO3)CC1 (stereo unspecified) | inconclusive [activator, partial curve] |  |
| COc1ccc(NS(=O)(=O)c2cccc(NC(=O)c3ccc(Cl)nc3)c2)cc1 | inconclusive [activator, full curve] |  |
| CC(=O)Nc1ccc(SC[C@H](C)CN2CC[C@H](C(C)(C)C)CCC2=O)cc1 | inconclusive [activator, single point] |  |
| Cc1ccc(C(C)(C)C)cc1S(=O)(=O)Nc1ncnc2sccc12 | inconclusive [activator, single point] |  |
| CCCC(=O)NC(=S)Nc1ccccc1OC | inconclusive [activator, single point] |  |
| COc1ccc(N2C(=O)CC(Sc3n[nH]c(-c4ccc(C)cc4)n3)C2=O)cc1 (stereo unspecified) | inconclusive [activator, single point] |  |
| CCOc1ccc(NC(=O)CN2C(=O)CC(C)Sc3ccccc32)cc1 (stereo unspecified) | inconclusive [activator, partial curve] |  |
| CCCCCOC(=O)c1[nH]c2c(c1C)C(=O)C(C(=O)OC)C(C)C2 (stereo unspecified) | inconclusive [activator, single point] |  |
| Cc1ccc(CNC(=O)c2sc3nc4c(c(C(F)(F)F)c3c2N)CCC4)cc1 | inconclusive [activator, single point] |  |

| SMILES | Potency | growth rescue (activation) |
| --- | --- | --- |
| O=C1CN(C(=O)COc2ccc(Cl)cc2)C(c2ccccc2)c2cc(Br)ccc2N1 (stereo unspecified) | inconclusive [activator, partial curve, poor fit] |  |
| CC(C)(C)OC(=O)N1CCC(c2c(C(=O)Nc3ccc4c(c3)OCCO4)cnn2-c2ccc(Cl)cc2)CC1 |  | inactive: -5.37% |
| COc1ccc(C(=O)c2oc3nc(C)cc(C)c3c2N)cc1 | inconclusive [activator, single point] |  |
| COc1ccc2nc(N3CCN(C(=O)C4COc5ccccc5O4)CC3)sc2c1 (stereo unspecified) | inconclusive [activator, single point] |  |
| CCCCNC(=S)NNC(=O)c1csc(CC)c1 | inconclusive [activator, single point] |  |
| CC1CCC(Nc2nc3c(-c4ccc(Cl)cc4)nnn3c3ccccc23)CC1 (stereo unspecified) | inconclusive [activator, partial curve] |  |
| CC(=O)c1ccc(NC(=O)CN2C(=O)CCc3ccccc32)cc1 | inconclusive [activator, partial curve] |  |
| Cc1ccc2occ(CC(=O)N(Cc3ccccc3Cl)C3CCS(=O)(=O)C3)c2c1 (stereo unspecified) |  | inactive: 12.4% |
| Cc1c(Cl)cccc1NC(=S)NC1CC1 | inconclusive [activator, partial curve] |  |
| CC(C)(C)c1nnc(N/N=C/c2cc(Br)ccc2O)n(N)c1=O | inconclusive [activator, partial curve] |  |
| C/C=C/c1ccc2c(c1)O[C@H](CN(C)CC1CCOCC1)[C@@H](C)CN([C@H](C)CO)S2(=O)=O |  | inactive: 0% |
| CCn1nc(C(=O)Nc2ccc(N3CCOCC3)cc2)c2ccccc2c1=O | inconclusive [activator, full curve, poor fit] |  |
| O=C(CN1C(=O)C(=O)N(Cc2ccco2)C1=O)c1c[nH]c2ccccc12 |  | inactive: -15.2% |
| CCOC(=O)C1CCCN(C(=O)c2cc(OC)ccc2Br)CC1 (stereo unspecified) | inconclusive [activator, partial curve, poor fit] |  |
| CCc1nnc(NC(=O)c2ccc(S(=O)(=O)N3CCCC(C)C3)cc2)o1 (stereo unspecified) | inconclusive [activator, single point] |  |
| CCCc1c(C(=O)OCC)[nH]c2c1C(=O)CCC2 | inconclusive [activator, single point] |  |
| Cc1noc(C)c1S(=O)(=O)Nc1ccc2c(c1)C(=O)N([C@H](C)CO)C[C@H](C)[C@@H](CN(C)S(=O)(=O)c1ccccc1)O2 | inconclusive [activator, partial curve] |  |
| COc1ccc2sc(-c3ccc(N(C)C)cc3)c(C#CCO)c2c1 | inconclusive [activator, single point] |  |
| Cc1ccc2c(c1)c1c3n2CCN(C(=O)Cn2c(-c4ccccc4)noc2=O)C3CCC1 (stereo unspecified) | inconclusive [activator, single point] |  |
| CCCOc1ccccc1NC(=O)c1ccc(N)cc1 | inconclusive [activator, partial curve, poor fit] |  |
| CCn1cnc2c1c(=O)n(Cc1cccc(Br)c1)c(=O)n2Cc1ccccc1 | active: 22.4 µM |  |
| O=C1N[C@@H](Cc2c[nH]c3ccccc23)COC(=O)[C@@H](Cc2ccc(F)cc2)C/C=C\C[C@H]1CC(=O)N(CCO)Cc1ccccc1 |  | inactive: 4.21% |
